From the antibiotic and cytotoxicity screens of Wong et al. (2023)
The other results are listed elsewhere or left out.

Columns and labels:
HSkMC = human skeletal muscle cells; experiment: cytotoxicity call (relative viability < 0.9); settings: 10 µM
HepG2 = experiment: cytotoxicity call (relative viability < 0.9); settings: 10 µM
S. aureus RN4220 = experiment: growth inhibition call (relative growth <= 0.2); settings: 50 µM

Nc1ccn([C@H]2CC[C@@H](CO)O2)c(=O)n1
cytotoxicity call (HSkMC): inactive
cytotoxicity call (HepG2): inactive
growth inhibition call (S. aureus RN4220): inactive

C[C@@H]1CN([C@@H](C)CO)C(=O)c2cc(-c3cccc(C(=O)N(C)C)c3)cnc2O[C@@H]1CN(C)S(=O)(=O)c1cccc(F)c1
cytotoxicity call (HSkMC): inactive
cytotoxicity call (HepG2): inactive
growth inhibition call (S. aureus RN4220): inactive

C[C@@H]1CCCCO[C@H](CN(C)CC2CC2)[C@H](C)CN([C@H](C)CO)C(=O)c2cc(NC(=O)NC3CCCCC3)ccc2O1
cytotoxicity call (HSkMC): inactive
cytotoxicity call (HepG2): inactive
growth inhibition call (S. aureus RN4220): inactive

Cc1noc(C)c1S(=O)(=O)Nc1ccc2c(c1)C(=O)N([C@H](C)CO)C[C@@H](C)[C@@H](CN(C)S(=O)(=O)c1cccs1)O2
cytotoxicity call (HSkMC): inactive
cytotoxicity call (HepG2): inactive
growth inhibition call (S. aureus RN4220): inactive

Cc1noc(C)c1NC(=O)N(C)C[C@@H]1Oc2c(NC(=O)c3ccc(-c4nccs4)cc3)cccc2C(=O)N([C@@H](C)CO)C[C@@H]1C
cytotoxicity call (HSkMC): inactive
cytotoxicity call (HepG2): inactive
growth inhibition call (S. aureus RN4220): inactive

C[C@H]1CN([C@@H](C)CO)C(=O)Cc2cc(NC(=O)CCC(F)(F)F)ccc2O[C@H]1CN(C)Cc1ccc(Cl)c(Cl)c1
cytotoxicity call (HSkMC): inactive
cytotoxicity call (HepG2): inactive
growth inhibition call (S. aureus RN4220): inactive

COc1ccc([C@@H]([C@H](Cc2ccccc2)OC(C)=O)N2Cc3c(noc3[C@@H](O)c3ccccc3)[C@@H]2Cc2ccccc2)cc1
cytotoxicity call (HSkMC): inactive
cytotoxicity call (HepG2): inactive
growth inhibition call (S. aureus RN4220): inactive

Cc1noc(C)c1NC(=O)Nc1ccc2c(c1)C(=O)N([C@@H](C)CO)C[C@H](C)[C@@H](CN(C)Cc1ccc(C(F)(F)F)cc1)O2
cytotoxicity call (HSkMC): inactive
cytotoxicity call (HepG2): inactive
growth inhibition call (S. aureus RN4220): inactive

Cn1c2c(c(=S)[nH]c1=O)CCC2
cytotoxicity call (HSkMC): inactive
cytotoxicity call (HepG2): inactive
growth inhibition call (S. aureus RN4220): inactive

CN(C)CC(=O)N[C@H]1CC[C@@H](CC(=O)O)O[C@@H]1CO
cytotoxicity call (HSkMC): inactive
cytotoxicity call (HepG2): inactive
growth inhibition call (S. aureus RN4220): inactive

CC(C)CC#Cc1ccc2c(c1)O[C@H](CN(C)C(=O)Cc1ccccn1)[C@H](C)CN([C@@H](C)CO)S2(=O)=O
cytotoxicity call (HSkMC): inactive
cytotoxicity call (HepG2): inactive
growth inhibition call (S. aureus RN4220): inactive

CCc1nc2c(OCC(=O)c3ccc(Cl)cc3Cl)cccn2c1N(C=O)Cc1ccc(OC)cc1
cytotoxicity call (HSkMC): inactive
cytotoxicity call (HepG2): inactive
growth inhibition call (S. aureus RN4220): inactive

C[C@H](CO)N1C[C@H](C)[C@H](CN(C)Cc2ccc(-c3ccccc3)cc2)Oc2c(NC(=O)c3nc4ccccc4s3)cccc2C1=O
cytotoxicity call (HSkMC): inactive
cytotoxicity call (HepG2): inactive
growth inhibition call (S. aureus RN4220): inactive

C[C@H](CO)N1C[C@H](C)[C@H](CN(C)C(=O)C2CCCCC2)OCCCC[C@H](C)Oc2ccc(NC(=O)NC3CCCCC3)cc2C1=O
cytotoxicity call (HSkMC): inactive
cytotoxicity call (HepG2): active
growth inhibition call (S. aureus RN4220): inactive

CO[C@@H]1CN(C)C(=O)c2cc(NC(=O)C3CC3)ccc2OC[C@@H](C)N(C(=O)Nc2ccc(C(F)(F)F)cc2)C[C@H]1C
cytotoxicity call (HSkMC): inactive
cytotoxicity call (HepG2): inactive
growth inhibition call (S. aureus RN4220): inactive

CN1CCN(C(=O)C[C@H]2CC[C@@H]3[C@H](COC[C@H](O)CN3Cc3ccc4c(c3)OCO4)O2)CC1
cytotoxicity call (HSkMC): inactive
cytotoxicity call (HepG2): inactive
growth inhibition call (S. aureus RN4220): inactive

O=c1c(O[C@@H]2O[C@H](CO)[C@H](O)[C@H](O)[C@H]2O)c(-c2ccc(O)c(O)c2)oc2cc(O)cc(O)c12
cytotoxicity call (HSkMC): inactive
cytotoxicity call (HepG2): inactive
growth inhibition call (S. aureus RN4220): inactive

COc1ccc2c3c([nH]c2c1)[C@@H](CO)N(C[C@]13CN(Cc2ccccc2F)C1)S(=O)(=O)c1cn(cn1)C
cytotoxicity call (HSkMC): inactive
cytotoxicity call (HepG2): inactive
growth inhibition call (S. aureus RN4220): inactive

CC(C)CC#Cc1ccc2c(c1)O[C@@H](CN(C)C(=O)Cc1ccccn1)[C@H](C)CN([C@@H](C)CO)S2(=O)=O
cytotoxicity call (HSkMC): inactive
cytotoxicity call (HepG2): inactive
growth inhibition call (S. aureus RN4220): inactive

CO[C@H]1CN(C)C(=O)c2ccc(NC(=O)Nc3ccccc3)cc2OC[C@H](C)N(C(=O)CN(C)C)C[C@H]1C
cytotoxicity call (HSkMC): inactive
cytotoxicity call (HepG2): inactive
growth inhibition call (S. aureus RN4220): inactive

COc1ccc(CN(C)C[C@H]2Oc3c(NC(=O)Nc4cccc5ccccc45)cccc3C(=O)N([C@H](C)CO)C[C@H]2C)cc1
cytotoxicity call (HSkMC): inactive
cytotoxicity call (HepG2): inactive
growth inhibition call (S. aureus RN4220): inactive

C[C@@H]1CCCCO[C@@H](CN(C)C(=O)Cc2ccccc2)[C@@H](C)CN([C@@H](C)CO)C(=O)c2cc(NC(=O)Cc3ccccc3)ccc2O1
cytotoxicity call (HSkMC): inactive
cytotoxicity call (HepG2): inactive
growth inhibition call (S. aureus RN4220): inactive

C[C@@H]1CN([C@H](C)CO)C(=O)Cc2cc(NC(=O)CCN3CCOCC3)ccc2O[C@@H]1CN(C)Cc1ccc(C(=O)Nc2ccccc2N)cc1
cytotoxicity call (HSkMC): inactive
cytotoxicity call (HepG2): inactive
growth inhibition call (S. aureus RN4220): inactive

C[C@H]1CCCCO[C@@H](CN(C)CC2CCCCC2)[C@@H](C)CN([C@@H](C)CO)C(=O)c2cc(NC(=O)CCC(F)(F)F)ccc2O1
cytotoxicity call (HSkMC): inactive
cytotoxicity call (HepG2): inactive
growth inhibition call (S. aureus RN4220): inactive

C[C@H]1CN([C@@H](C)CO)C(=O)c2cccc(NC(=O)CCCCCC(=O)Nc3ccccc3N)c2O[C@H]1CN(C)Cc1ccc(Cl)c(Cl)c1
cytotoxicity call (HSkMC): active
cytotoxicity call (HepG2): inactive
growth inhibition call (S. aureus RN4220): inactive
